According to the supplement of paper PMC9334596:
Several values for one entry are separate records, joined by “and”; a condition that tells them apart may be missing. Equal values may be shown once. Whole data set: some 5,300 compounds, median “PER2::LUC luminescence relative to vehicle control” near 0.96, cut for the highest 2% near 1.3. This is one part of the list.

System: mPer2Luc MEF
Assay: PER2::LUC luminescence relative to vehicle control (fold of vehicle); higher = higher PER2::LUC reporter signal
Settings: 10 µM
How it was run: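 The value is PER2::LUC luminescence expressed as fold of vehicle control. Mouse embryonic fibroblasts carrying the mPer2Luc reporter were seeded at ~3000 cells per well in 384-well plates and grown in DMEM with 10% FBS at 37 °C and 5% CO2. Compounds from commercial libraries were added at 10 μM 48 h after seeding, and luminescence was read with the ONE-Glo luciferase assay system 24 h and 30 h after treatment, followed by an alamarBlue viability assay.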

NCCc1c[nH]c2ccccc12
PER2::LUC luminescence (time after treatment 24 h): 1.05 and 1.06 | PER2::LUC luminescence (time after treatment 30 h): 1.01 and 0.941

C[C@]12CC[C@H](O)C[C@H]1CC[C@@H]1[C@@H]2C[C@@H](O)[C@]2(C)[C@@H](C3=CC(=O)OC3)CC[C@]12O
PER2::LUC luminescence (time after treatment 24 h): 0.984 | PER2::LUC luminescence (time after treatment 30 h): 1.09

Clc1ccc(N2C[C@H]3CC[C@@H](C2)N3)nn1
PER2::LUC luminescence (time after treatment 24 h): 0.869 | PER2::LUC luminescence (time after treatment 30 h): 0.799

CCc1c(C(=O)OC)ncc2[nH]c3cc(OC)c(OC)cc3c12
PER2::LUC luminescence (time after treatment 24 h): 0.922 | PER2::LUC luminescence (time after treatment 30 h): 0.848

N[C@H](C(=O)O)c1cc(O)no1
PER2::LUC luminescence (time after treatment 24 h): 0.953 | PER2::LUC luminescence (time after treatment 30 h): 1.02

c1cc2c(cc1[C@H]1OC[C@H]3[C@@H]1CO[C@H]3c1ccc3c(c1)OCO3)OCO2
PER2::LUC luminescence (time after treatment 24 h): 1.15 | PER2::LUC luminescence (time after treatment 30 h): 1.17

CC(=O)OCC1=C[C@H]2[C@@H]3C(C)(C)[C@]3(OC(=O)Cc3ccccc3)C[C@@H](C)[C@]2(O)[C@@H]2C=C(C)C(=O)[C@@]2(O)C1
PER2::LUC luminescence (time after treatment 24 h): 1.21 | PER2::LUC luminescence (time after treatment 30 h): 1.09

C#CCN(C)[C@H](C)Cc1ccccc1
PER2::LUC luminescence (time after treatment 24 h): 0.941 and 0.895 | PER2::LUC luminescence (time after treatment 30 h): 0.893 and 0.934

COc1ccc2c3c([nH]c2c1)[C@H](CC(C)C)N1C(=O)[C@H](CCC(=O)OC(C)(C)C)NC(=O)[C@@H]1C3
PER2::LUC luminescence (time after treatment 24 h): 0.871 | PER2::LUC luminescence (time after treatment 30 h): 0.868

CN1CCN(c2nc3ccccc3nc2Cl)CC1
PER2::LUC luminescence (time after treatment 24 h): 1.01 | PER2::LUC luminescence (time after treatment 30 h): 1.01

CCNC1=Nc2ccc(Cl)cc2C(C)(c2ccccc2)O1 (stereo not drawn)
PER2::LUC luminescence (time after treatment 24 h): 1.07 and 0.939 | PER2::LUC luminescence (time after treatment 30 h): 0.917 and 1.01

C[C@@H]1O[C@@H](O[C@@H]2C=C3CC[C@@H]4[C@H](CC[C@]5(C)[C@@H](c6ccc(=O)oc6)CC[C@]45O)[C@@]3(C)CC2)[C@H](O)[C@H](O)[C@H]1O
PER2::LUC luminescence (time after treatment 24 h): 0.969 | PER2::LUC luminescence (time after treatment 30 h): 0.909

CN(C)C(=O)Oc1ccc[n+](C)c1
PER2::LUC luminescence (time after treatment 24 h): 0.856 and 0.593 | PER2::LUC luminescence (time after treatment 30 h): 0.965 and 1.06

NCCc1ccccc1
PER2::LUC luminescence (time after treatment 24 h): 1.03 | PER2::LUC luminescence (time after treatment 30 h): 1.04

CC[C@H]1CN2CC[C@H]1C[C@H]2[C@H](O)c1ccnc2ccc(OC)cc12
PER2::LUC luminescence (time after treatment 24 h): 0.777 | PER2::LUC luminescence (time after treatment 30 h): 0.861

COc1ccc(/C=C/c2cc(O)cc(O)c2)cc1
PER2::LUC luminescence (time after treatment 24 h): 1.69 | PER2::LUC luminescence (time after treatment 30 h): 1.76

C=CCN1CC[C@]23CCCC[C@H]2[C@H]1Cc1ccc(O)cc13
PER2::LUC luminescence (time after treatment 24 h): 0.896 | PER2::LUC luminescence (time after treatment 30 h): 0.84

CC(=O)Nc1cc([As](=O)(O)O)ccc1O
PER2::LUC luminescence (time after treatment 24 h): 1.04 and 1.02 | PER2::LUC luminescence (time after treatment 30 h): 1.06 and 0.878

C/C=C(\C)C(=O)O[C@H]1C[C@@H](OC(C)=O)[C@@]2(C(=O)OC)CO[C@H]3[C@@H](O)[C@@](C)([C@]45O[C@@]4(C)[C@H]4C[C@@H]5O[C@@H]5OC=C[C@@]54O)[C@H]4[C@]1(CO[C@]4(O)C(=O)OC)[C@@H]32
PER2::LUC luminescence (time after treatment 24 h): 0.966 | PER2::LUC luminescence (time after treatment 30 h): 0.924

Cc1cc2c(C(C)C)c(O)c(O)c(C=O)c2c(O)c1-c1c(C)cc2c(C(C)C)c(O)c(O)c(C=O)c2c1O
PER2::LUC luminescence (time after treatment 24 h): 0.631 | PER2::LUC luminescence (time after treatment 30 h): 0.7

O=C(O)/C=C/CO
PER2::LUC luminescence (time after treatment 24 h): 1.02 | PER2::LUC luminescence (time after treatment 30 h): 0.97

CCCN1CC[C@@H]2c3cc(O)ccc3CC[C@@H]21 (racemic)
PER2::LUC luminescence (time after treatment 24 h): 0.904 | PER2::LUC luminescence (time after treatment 30 h): 1.04

O=c1[nH]c2ccccc2n1C1CCN(CCCC(c2ccc(F)cc2)c2ccc(F)cc2)CC1
PER2::LUC luminescence (time after treatment 24 h): 0.715 | PER2::LUC luminescence (time after treatment 30 h): 0.71

COc1cc2c(cc1F)C(c1ccccc1Cl)=Nc1c(n[nH]c1C)N2
PER2::LUC luminescence (time after treatment 24 h): 0.461 | PER2::LUC luminescence (time after treatment 30 h): 0.367

O=C(O[C@H]1CN2CCC1CC2)N(Cc1cc(F)c(F)c(F)c1)c1cccc(F)c1
PER2::LUC luminescence (time after treatment 24 h): 0.705 | PER2::LUC luminescence (time after treatment 30 h): 0.788

CC(=O)[O][Hg][c]1ccccc1
PER2::LUC luminescence (time after treatment 24 h): 0.604 | PER2::LUC luminescence (time after treatment 30 h): 0.585

CC(C)C[C@H](NC(=O)[C@H](Cc1ccccc1)NC(=O)CNC(=O)[C@H](NC(=O)[C@@H](N)Cc1ccc(O)cc1)[C@H](C)O)C(=O)N[C@@H](C(=O)O)[C@@H](C)O
PER2::LUC luminescence (time after treatment 24 h): 0.94 | PER2::LUC luminescence (time after treatment 30 h): 0.916

CC(=O)NCCc1c[nH]c2ccccc12
PER2::LUC luminescence (time after treatment 24 h): 0.923 | PER2::LUC luminescence (time after treatment 30 h): 0.996

C[C@@H]1[C@H](O)[C@@H](C)/C=C/C=C/CC/C=C/C=C/C=C/C=C/[C@H](O[C@H]2O[C@@H](C)[C@H](O)[C@@H](N)[C@H]2O)C[C@@H]2O[C@](O)(C[C@@H](O)[C@H](O)CC[C@@H](O)C[C@@H](O)C[C@@H](O)CC(=O)O[C@H]1C)C[C@H](O)[C@H]2C(=O)O
PER2::LUC luminescence (time after treatment 24 h): 1.08 | PER2::LUC luminescence (time after treatment 30 h): 0.928

Nc1ccc(CCN2CCN(c3cccc(C(F)(F)F)c3)CC2)cc1
PER2::LUC luminescence (time after treatment 24 h): 0.898 | PER2::LUC luminescence (time after treatment 30 h): 0.788

COc1cccc2c1cc([N+](=O)[O-])c1c(C(=O)O)cc3c(c12)OCO3
PER2::LUC luminescence (time after treatment 24 h): 1.32 and 1.11 | PER2::LUC luminescence (time after treatment 30 h): 0.955 and 1.05

COP(=S)(OC)Oc1cc(Cl)c(Cl)cc1Cl
PER2::LUC luminescence (time after treatment 24 h): 1.12 | PER2::LUC luminescence (time after treatment 30 h): 0.813

NCCc1c[nH]c2ccc(C(N)=O)cc12
PER2::LUC luminescence (time after treatment 24 h): 1.02 | PER2::LUC luminescence (time after treatment 30 h): 0.977

COc1cc2occc2c2oc(=O)ccc12
PER2::LUC luminescence (time after treatment 24 h): 0.853 | PER2::LUC luminescence (time after treatment 30 h): 0.853

CCCCCCCCC(=O)NCc1ccc(O)c(OC)c1
PER2::LUC luminescence (time after treatment 24 h): 0.977 | PER2::LUC luminescence (time after treatment 30 h): 0.997

CC(C)c1ccc2c(c1O)CC[C@H]1C3=C(CC[C@]21C)C(=O)OC3
PER2::LUC luminescence (time after treatment 24 h): 0.736 | PER2::LUC luminescence (time after treatment 30 h): 0.86

Nc1ccc([As](=O)(O)O)cc1
PER2::LUC luminescence (time after treatment 24 h): 0.989 and 0.943 | PER2::LUC luminescence (time after treatment 30 h): 1.04 and 0.896

CC1(C)[C@@H](O)C[C@H]2[C@](C)(O)[C@@H]3CC[C@@H]4[C@@H](O)[C@@]3(C[C@@H](O)[C@@]21O)C[C@@]4(C)O
PER2::LUC luminescence (time after treatment 24 h): 1.04 | PER2::LUC luminescence (time after treatment 30 h): 0.912

NCCCNCCSP(=O)(O)O
PER2::LUC luminescence (time after treatment 24 h): 0.972 | PER2::LUC luminescence (time after treatment 30 h): 0.961
